Reference: PubChem BioAssay AID686971 (National Center for Advancing Translational Sciences (NCATS), 2013)
The campaign covered roughly 360,000 compounds. About 7,500 (2.1%) were called active. The inconclusive results got no clear call from the source; some entries with a clear call stand among them for comparison. Calls come from the whole dose curve; as a rule, active = well fitted cell-killing curve with a large enough effect; inconclusive = small, poorly fitted or top-dose-only effect, or effect the other way, or another doubt; inactive = no such curve, though single readings can be large or run the other way. No potency is given beside an inconclusive call; the fits are too rough.

Assay: qHTS for induction of synthetic lethality in tumor cells producing 2HG: qHTS for the HT-1080-IDH1KD cell line;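 for activity, negative = toxicity: 0% = DMSO wells and -100% = cell-free medium wells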
Conditions: HT-1080 IDH1 knockdown viability, ATP luminescence, 48 h; activity, negative = toxicity: at 46.1 µM (top of the series) unless noted
Summary of the method: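 After a 2 h attachment period, IDH1KD HT-1080 cells took pin-transferred compound for 48 h at 37 °C; ATP-based luminescence after 10 min room-temperature reagent incubation reported viability.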
Potency is the fitted concentration of half-maximal effect; tags give direction and shape of the fitted curve.

SMILES | Potency | activity, negative = toxicity
Cc1ccc(NC(=O)CN2CCCC2c2cccs2)cc1S(=O)(=O)N1CCCCC1 (centres undefined) | inconclusive [cytotoxic, single point] | –
Cc1ccc(NC(=O)CCN2C(=O)c3cccc([N+](=O)[O-])c3C2=O)c(Br)c1 | – | inconclusive: 33.2%
Cc1cc(NC(=O)Cn2nnc3sc4c(c3c2=O)CCC(C(C)(C)C)C4)no1 (centres undefined) | inconclusive [cytotoxic, single point] | –
C=CCN1C(c2ccc(OCC)cc2)=CS/C1=C(\C#N)c1nnc2n1CCCCC2 | – | inconclusive: -64.2%
CCC(CC)=C(C#N)C(=O)NC1CCCCC1 | inactive | –
COc1cc(/C=N/Nc2ccccc2)ccc1O | active: 20.6 µM | –
Cc1nn(CC(=O)Nc2ccc3c(c2)nc(CCN2CCCCC2)n3C)c(=O)c2ccccc12 | active: 2.82 µM | –
O=C(CNC(=O)c1cccnc1)N/N=C/c1ccc(O)cc1O | inconclusive [cytotoxic, partial curve] | –
COc1ccccc1N1CCN(C(=S)Nc2ccc(S(=O)(=O)N3CCOCC3)cc2)CC1 | inconclusive [cytotoxic, single point] | –
CC1=C(C(=O)N2CCCCCC2)CC(CC(=O)NCCc2ccccn2)C(=O)N1Cc1ccc(C(C)(C)C)cc1 (centres undefined) | inconclusive [cytotoxic, single point] | –
CC(=O)c1cccc(NC(=O)C2Cc3c(-c4ccc5c(c4)OCO5)ccnc3O2)c1 (centres undefined) | inactive | –
CN1CCN(CCCOc2ccc(-c3ccccc3)cc2)CC1 | active: 16.4 µM | –
Cc1noc(C)c1C(=O)N1CCC1(C)C(=O)NS(=O)(=O)c1ccc(Br)cc1 (centres undefined) | inconclusive [rising, single point] | –
COc1cccc(N2CCN(c3nc(-c4ccccc4C)cc(=O)[nH]3)CC2)c1 | inconclusive [cytotoxic, single point] | –
Nc1ncnc(N)c1NC(=O)c1cc(Cl)c(OCc2ccccc2)c(Cl)c1 | inactive | –
COc1ccc(-n2nc3c(N4CCC(C(=O)N5CCCCCC5)CC4)nnc(C)c3c2C)cc1 | inconclusive [cytotoxic, single point] | –
Cc1ccc(NC(=O)Cn2c(-c3ccc(F)cc3)cnc2SCC(=O)Nc2c(C)cccc2C)cc1 | inconclusive [cytotoxic, partial curve] | –
COc1cc(F)ccc1-c1csc(C(O)c2ccc(F)cc2)n1 (centres undefined) | inconclusive [cytotoxic, single point] | –
O=C(NNc1ccccc1)C(=O)NNc1ccccc1 | active: 1.16 µM | –
CC1CC(C)(C)CC2(C1)NC(=O)N(CC(=O)Nc1cc([N+](=O)[O-])ccc1F)C2=O (centres undefined) | inactive | –
O=C1Nc2ccccc2N=C(c2ccc3c(c2)OCO3)C1N(C(=O)c1ccnc2ccccc12)c1ccccc1 (centres undefined) | inconclusive [cytotoxic, single point] | –
CCSc1nnc(NC(=O)CCNC(=O)c2ccccc2Cl)s1 | inactive | –
CSc1ccc(CN2C(=O)C(C)Sc3ccc(C(C)=O)cc32)cc1 (centres undefined) | inconclusive [cytotoxic, single point] | –

SMILES | Potency | activity, negative = toxicity
O=C(N/N=C/c1ccc([N+](=O)[O-])o1)c1cc(-c2ccc(-c3ccccc3)cc2)nc2ccccc12 | – | inconclusive: -35.9% [cytotoxic]
O=C(COc1ccc(Cl)cc1)Nc1ccc(C(=O)NCc2cccnc2)cc1 | inconclusive [cytotoxic, single point] | –
O=C(CCn1c(=O)c2cccn2c2ccccc21)Nc1ccc(F)cc1 | inconclusive [cytotoxic, single point] | –
CCCOc1ccc(F)cc1-c1cc(C(=O)NCc2ccc(C(F)(F)F)cc2)[nH]n1 | inconclusive [cytotoxic, single point] | –
COc1ccc(C2=Nc3ccccc3NC(=O)C2N(CCc2ccccc2)C(=O)c2cccs2)cc1 (centres undefined) | inconclusive [cytotoxic, single point] | –
COc1cc(C(=O)Nc2ccc(Oc3ncnc4sc(-c5ccccc5)cc34)cc2)cc(OC)c1OC | – | inconclusive: 35.1%
COc1cccc(/C=N/Nc2nccnc2Cl)c1O | inconclusive [cytotoxic, partial curve] | –
CC1(C(=O)O)CCCN(C(=O)c2ccc3c(c2)C(C)(C)CCC3(C)C)C1 (centres undefined) | inactive | –
COc1ccc(-c2[nH]ncc2Oc2ccccc2OC)c(O)c1 | inconclusive [cytotoxic, single point] | –
CCn1c(SCc2ccccc2)nnc1-c1cccs1 | – | inconclusive: -36.6% [cytotoxic]
COc1cc2ccccc2cc1C(=O)Nc1ccc(C)cc1 | inconclusive [cytotoxic, single point] | –
Cc1ccc2[nH]c3c(c2c1)CN(C(=O)CN1c2ccc(F)cc2CCC1C)CC3 (centres undefined) | inconclusive [cytotoxic, single point] | –
Clc1ccc(-c2nc3ccc(Br)cn3c2Cc2ccsc2)cc1 | inconclusive [cytotoxic, single point] | –
O=C1C(Nc2cccc(O)c2)=C(N2CCCCC2)C(=O)c2ccccc21 | inconclusive [cytotoxic, single point] | –
NC(CCc1ccccc1)c1csc(Nc2ccc(C(=O)c3ccccc3)cc2)n1 (centres undefined) | inconclusive [cytotoxic, single point] | –
Oc1ccc(C2CNCc3sccc32)cc1O (centres undefined) | inconclusive [cytotoxic, single point] | –
CC(=O)Nc1ccc(S(=O)(=O)NNC(=O)COc2cccc3ccccc23)cc1 | inconclusive [cytotoxic, single point] | –
O=C(O)C[C@H]1c2cc(C(F)(F)F)ccc2S(=O)(=O)N1Cc1ccccc1 | inactive | –
CN(C)CCCNc1c2ccccc2nc2ccccc12 | active: 5.17 µM | –
C=CCc1cccc(/C=N/NC(=O)CNc2ccccc2OC)c1O | active: 18.4 µM | –
Cc1nc(N2CCN(Cc3nc4ccccc4[nH]3)CC2)c2oc3ccccc3c2n1 | inconclusive [cytotoxic, single point] | –
O=C(Nc1ccc(Cl)c(C(F)(F)F)c1)C1Cc2c(-c3ccccc3Oc3ccccc3)ccnc2O1 (centres undefined) | inconclusive [cytotoxic, single point] | –
NC(=O)c1nsc(C(=O)N(c2ccccc2F)C(C(=O)NCc2ccccc2)c2ccc(O)cc2)c1N (centres undefined) | inconclusive [cytotoxic, single point] | –

SMILES | Potency | activity, negative = toxicity
Cc1c(N=Cc2cc(Br)cc(Br)c2O)cccc1C(=O)O | inconclusive [cytotoxic, single point] | –
CCc1cnc(Nc2nc(C(N)Cc3ccc(F)cc3)cs2)nc1 (centres undefined) | active: 23.1 µM | –
COc1ccc(N(CC(=O)Nc2cc(Cl)ccc2OC)S(=O)(=O)c2c(C)noc2C)cc1 | active: 11.6 µM | –
COc1cc(C(=O)O/N=C2/C=C(C)C(=O)C=C2C)cc(OC)c1OC | inactive | –
Cc1nn(CC(C)C)c(Cl)c1C(=O)N(C)CC(=O)Nc1ccc(Cl)cc1 | inactive | –
O=S(=O)(CS(=O)(=O)c1ccccc1)c1ccccc1 | inactive | –
Cc1cc2c(=Cc3ccc(N(C)C)cc3)c3ccccc3n2[n+]1C | active: 4.61 µM | –
NS(=O)(=O)c1ccc(CNc2nc(-c3cccnc3)nc3ccccc23)cc1 | inactive | –
NC(c1csc(Nc2ccc(C(=O)c3ccccc3)cc2)n1)c1ccccc1Cl (centres undefined) | inconclusive [cytotoxic, single point] | –
COc1ccc(-c2sc(C(=O)c3ccc(Cl)cc3Cl)cc2CC(=O)O)cc1 | inconclusive [cytotoxic, single point] | –
O=C(C#Cc1ccccc1)Nc1ccc(F)cc1 | active: 18.4 µM | –
C=CC[C@@H](Cc1ccc(F)cc1)C(=O)OC[C@@H]1CCCN1C(=O)[C@@H](CC=C)CC(=O)N[C@H](CO)Cc1ccccc1 | inconclusive [cytotoxic, single point] | –
Cn1c(Cc2ccccc2)nnc1SCC(=O)Nc1ccc2c(c1)OCO2 | inconclusive [cytotoxic, single point] | –
CC(=O)OC1CCC2C3CCC4OC(=O)CCC4C3CCC12C (centres undefined) | inactive | –
CCOc1ccc(C2C(C(C)=O)=C(O)C(=O)N2CCc2c[nH]c3ccccc23)cc1 (centres undefined) | inconclusive [cytotoxic, full curve] | –
Clc1cccc(Cl)c1C1Nc2cccc3cccc(c23)N1 | inconclusive [cytotoxic, partial curve] | –
N#CC1C=Cc2ccccc2N1C(=O)c1ccccc1 (centres undefined) | inconclusive [cytotoxic, single point] | –
CC1(C(=O)Nc2ccc3c(c2)OCCO3)CCN1Cc1ccc2ccccc2c1 (centres undefined) | inconclusive [cytotoxic, single point] | –
O=[N+]([O-])c1c(NCCCO)cc(Sc2nc3ccccc3s2)c2nonc12 | active: 6.31 µM | –
COc1ccccc1CC(O)CC1c2c(cc3c(c2OC)OCO3)CCN1C (centres undefined) | inconclusive [cytotoxic, single point] | –
CCN(CC)CCN(C(=O)c1ccc2c(c1)CCCC2)c1nc2c(C)cccc2s1 | inconclusive [cytotoxic, single point] | –
C=C1C(=O)[C@]23C[C@H]1CCC2[C@]1(C)C(=O)CC[C@@](C)(C(=O)O)C1C[C@@H]3O (some centres undefined) | active: 8.2 µM | –
C#CCOCCOCCOCCNc1nc(N2CCOCC2)nc(N2CCN(C(=O)[C@H](CCC(=O)O)n3cc(C(N)[C@H](C)CC)nn3)CC2)n1 (some centres undefined) | inactive | –
